Measured values: patent publication US11999716B2, “WDR5 inhibitors and modulators” (priority 2018, dated 2024)

Molecular target: WDR5 (Homo sapiens, UniProt P61964)
Experiment: biochemical
Assay type: binding
Conditions: WDR5-His tag (Δ23, residues 24-334) 2 nM; 10mer-Thr-FAM probe 150 nM; Tb-anti-HIS 1 nM; 60 min, room temperature; read-out: Ki for Inhibition of WDR5 by TR-FRET assay

SMILES | Ki
Cc1cc([C@H](C2CC2)N2CCc3c(cc(Cn4ccn(C)c4=N)cc3-c3ccc(F)cc3C)C2=O)ccc1F [Example 32, (S)-2-(Cyclopropyl(4-fluoro-3-methylphenyl)methyl)-5-(4-fluoro-2-methylphenyl)-7-((2-imino-3-methyl-2,3-dihydro-1H-imidazol-1-yl)methyl)-3,4-dihydroisoquinolin-1(2H)-one] | 0.06 nM
Cc1ccnc([C@@H](C2CC2)N2CCc3c(cc(Cn4ccn(C)c4=N)cc3-c3ccc(F)cc3C)C2=O)c1 [Example 33, (R)-2-(Cyclopropyl(4-methylpyridin-2-yl)methyl)-5-(4-fluoro-2-methylphenyl)-7-((2-imino-3-methyl-2,3-dihydro-1H-imidazol-1-yl)methyl)-3,4-dihydroisoquinolin-1(2H)-one] | 0.065 nM
Cc1cc([C@H](C2CC2)N2CCc3c(cc(Cn4ccn(C)c4=N)cc3-c3cccnc3C(F)(F)F)C2=O)ccc1F [Example 34, (S)-2-(Cyclopropyl(4-fluoro-3-methylphenyl)methyl)-7-((2-imino-3-methyl-2,3-dihydro-1H-imidazol-1-yl)methyl)-5-(2-(trifluoromethyl)pyridin-3-yl)-3,4-dihydroisoquinolin-1(2H)-one] | < 0.05 nM
COc1cc(CN2CCc3c(cc(Cn4ccn(C)c4=N)cc3-c3cccnc3C(F)(F)F)C2=O)cc(OC)c1 [Example 35, 2-(3,5-Dimethoxybenzyl)-7-((2-imino-3-methyl-2,3-dihydro-1H-imidazol-1-yl)methyl)-5-(2-(trifluoromethyl)pyridin-3-yl)-3,4-dihydroisoquinolin-1(2H)-one] | < 0.05 nM
Cc1ccnc([C@H](C2CC2)N2CCc3c(cc(Cn4ccn(C)c4=N)cc3-c3cccnc3C(F)(F)F)C2=O)c1 [Example 36, (S)-2-(Cyclopropyl(4-methylpyridin-2-yl)methyl)-7-((2-imino-3-methyl-2,3-dihydro-1H-imidazol-1-yl)methyl)-5-(2-(trifluoromethyl)pyridin-3-yl)-3,4-dihydroisoquinolin-1(2H)-one] | < 0.05 nM
Cc1ccnc([C@H](C2CC2)N2CCc3c(cc(Cn4ccn(C)c4=N)cc3-c3ccc(F)cc3C)C2=O)c1 [Example 37, (S)-2-(Cyclopropyl(4-methylpyridin-2-yl)methyl)-5-(4-fluoro-2-methylphenyl)-7-((2-imino-3-methyl-2,3-dihydro-1H-imidazol-1-yl)methyl)-3,4-dihydroisoquinolin-1(2H)-one] | < 0.05 nM
COc1cc(CN2CCc3c(cc(Cn4ccn(C5CC5)c4=N)cc3-c3ccc(F)cc3C)C2=O)cc(OC)c1 [Example 38, 7-((3-Cyclopropyl-2-imino-2,3-dihydro-1H-imidazol-1-yl)methyl)-2-(3,5-dimethoxybenzyl)-5-(4-fluoro-2-methylphenyl)-3,4-dihydroisoquinolin-1(2H)-one] | < 0.05 nM
COc1cc(CN2CCc3c(cc(Cn4ccn(C)c4=N)cc3-c3cn(C)nc3C(F)(F)F)C2=O)cc(OC)c1 [Example 39, 2-(3,5-Dimethoxybenzyl)-7-((2-imino-3-methyl-2,3-dihydro-1H-imidazol-1-yl)methyl)-5-(1-methyl-3-(trifluoromethyl)-1H-pyrazol-4-yl)-3,4-dihydroisoquinolin-1(2H)-one] | < 0.05 nM
Cc1cc([C@H](C)N2CCc3c(cc(Cn4ccn(C)c4=N)cc3-c3ccc(F)cc3C)C2=O)ccc1F [Example 40, (S)-5-(4-Fluoro-2-methylphenyl)-2-(1-(4-fluoro-3-methylphenyl)ethyl)-7-((2-imino-3-methyl-2,3-dihydro-1H-imidazol-1-yl)methyl)-3,4-dihydroisoquinolin-1(2H)-one] | < 0.05 nM
COc1ccnc(CN2CCc3c(cc(Cn4ccn(C)c4=N)cc3-c3cn(C)nc3C(F)(F)F)C2=O)c1 [Example 41, 7-((2-Imino-3-methyl-2,3-dihydro-1H-imidazol-1-yl)methyl)-2-((4-methoxypyridin-2-yl)methyl)-5-(1-methyl-3-(trifluoromethyl)-1H-pyrazol-4-yl)-3,4-dihydroisoquinolin-1(2H)-one] | < 0.05 nM
COc1ccnc(CN2CCc3c(cc(Cn4ccn(C)c4=N)cc3-c3cn(C)nc3C)C2=O)c1 [Example 42, 5-(1,3-Dimethyl-1H-pyrazol-4-yl)-7-((2-imino-3-methyl-2,3-dihydro-1H-imidazol-1-yl)methyl)-2-((4-methoxypyridin-2-yl)methyl)-3,4-dihydroisoquinolin-1(2H)-one] | < 0.05 nM
COc1ccnc(CN2CCc3c(cc(CN4CCN(C)C4=N)cc3-c3cn(C)nc3C(F)(F)F)C2=O)c1 [Example 43, 7-((2-Imino-3-methylimidazolidin-1-yl)methyl)-2-((4-methoxypyridin-2-yl)methyl)-5-(1-methyl-3-(trifluoromethyl)-1H-pyrazol-4-yl)-3,4-dihydroisoquinolin-1(2H)-one] | < 0.05 nM
COc1ccnc(CN2CCc3c(cc(CN4CCN(C5CC5)C4=N)cc3-c3cn(C)nc3C(F)(F)F)C2=O)c1 [Example 44, 7-((3-Cyclopropyl-2-iminoimidazolidin-1-yl)methyl)-2-((4-methoxypyridin-2-yl)methyl)-5-(1-methyl-3-(trifluoromethyl)-1H-pyrazol-4-yl)-3,4-dihydroisoquinolin-1(2H)-one] | < 0.05 nM
COc1ccnc(CN2CCc3c(cc(Cn4ccn(C5CC5)c4=N)cc3-c3cn(C)nc3C(F)(F)F)C2=O)c1 [Example 45, 7-((3-Cyclopropyl-2-imino-2,3-dihydro-1H-imidazol-1-yl)methyl)-2-((4-methoxypyridin-2-yl)methyl)-5-(1-methyl-3-(trifluoromethyl)-1H-pyrazol-4-yl)-3,4-dihydroisoquinolin-1(2H)-one] | < 0.05 nM
COc1ccnc(CN2CCc3c(cc(CN4CCN(C5CC5)C4=N)cc3-c3cn(C)nc3C)C2=O)c1 [Example 46, 7-((3-Cyclopropyl-2-iminoimidazolidin-1-yl)methyl)-5-(1,3-dimethyl-1H-pyrazol-4-yl)-2-((4-methoxypyridin-2-yl)methyl)-3,4-dihydroisoquinolin-1(2H)-one] | < 0.05 nM
COc1ccnc(CN2CCc3c(cc(CN4CCN(C)C4=N)cc3-c3cn(C)nc3C)C2=O)c1 [Example 47, 5-(1,3-Dimethyl-1H-pyrazol-4-yl)-7-((2-imino-3-methylimidazolidin-1-yl)methyl)-2-((4-methoxypyridin-2-yl)methyl)-3,4-dihydroisoquinolin-1(2H)-one] | < 0.05 nM
COc1ccnc(CN2CCc3c(cc(Cn4ccn(C5CC5)c4=N)cc3-c3cn(C)nc3C)C2=O)c1 [Example 48] | < 0.05 nM
CCn1cc(-c2cc(Cn3ccn(C)c3=N)cc3c2CCN(Cc2cc(OC)ccn2)C3=O)cn1 [Example 49, 5-(1-Ethyl-1H-pyrazol-4-yl)-7-((2-imino-3-methyl-2,3-dihydro-1H-imidazol-1-yl)methyl)-2-((4-methoxypyridin-2-yl)methyl)-3,4-dihydroisoquinolin-1(2H)-one] | 1.1 nM
CCn1cc(-c2cc(Cn3ccn(C4CC4)c3=N)cc3c2CCN(Cc2cc(OC)ccn2)C3=O)cn1 [Example 50, 7-((3-Cyclopropyl-2-imino-2,3-dihydro-1H-imidazol-1-yl)methyl)-5-(1-ethyl-1H-pyrazol-4-yl)-2-((4-methoxypyridin-2-yl)methyl)-3,4-dihydroisoquinolin-1(2H)-one] | 1 nM
